# Data: PMC4336329 (PLoS ONE, 2015)
# Out of some 310,000 compounds screened, about 2,200 (0.71%) showed an effect of 50% or more. Effects have a minus sign here. This is one part of the list.
# Target: human ether-à-go-go-related gene (hERG) potassium channel (human, UniProt Q12809)
# Assay: primary screen, population patch clamp on CHO cells stably expressing hERG
# human ether-à-go-go-related gene (hERG) potassium channel, sequence (Q12809 whole entry, looked up): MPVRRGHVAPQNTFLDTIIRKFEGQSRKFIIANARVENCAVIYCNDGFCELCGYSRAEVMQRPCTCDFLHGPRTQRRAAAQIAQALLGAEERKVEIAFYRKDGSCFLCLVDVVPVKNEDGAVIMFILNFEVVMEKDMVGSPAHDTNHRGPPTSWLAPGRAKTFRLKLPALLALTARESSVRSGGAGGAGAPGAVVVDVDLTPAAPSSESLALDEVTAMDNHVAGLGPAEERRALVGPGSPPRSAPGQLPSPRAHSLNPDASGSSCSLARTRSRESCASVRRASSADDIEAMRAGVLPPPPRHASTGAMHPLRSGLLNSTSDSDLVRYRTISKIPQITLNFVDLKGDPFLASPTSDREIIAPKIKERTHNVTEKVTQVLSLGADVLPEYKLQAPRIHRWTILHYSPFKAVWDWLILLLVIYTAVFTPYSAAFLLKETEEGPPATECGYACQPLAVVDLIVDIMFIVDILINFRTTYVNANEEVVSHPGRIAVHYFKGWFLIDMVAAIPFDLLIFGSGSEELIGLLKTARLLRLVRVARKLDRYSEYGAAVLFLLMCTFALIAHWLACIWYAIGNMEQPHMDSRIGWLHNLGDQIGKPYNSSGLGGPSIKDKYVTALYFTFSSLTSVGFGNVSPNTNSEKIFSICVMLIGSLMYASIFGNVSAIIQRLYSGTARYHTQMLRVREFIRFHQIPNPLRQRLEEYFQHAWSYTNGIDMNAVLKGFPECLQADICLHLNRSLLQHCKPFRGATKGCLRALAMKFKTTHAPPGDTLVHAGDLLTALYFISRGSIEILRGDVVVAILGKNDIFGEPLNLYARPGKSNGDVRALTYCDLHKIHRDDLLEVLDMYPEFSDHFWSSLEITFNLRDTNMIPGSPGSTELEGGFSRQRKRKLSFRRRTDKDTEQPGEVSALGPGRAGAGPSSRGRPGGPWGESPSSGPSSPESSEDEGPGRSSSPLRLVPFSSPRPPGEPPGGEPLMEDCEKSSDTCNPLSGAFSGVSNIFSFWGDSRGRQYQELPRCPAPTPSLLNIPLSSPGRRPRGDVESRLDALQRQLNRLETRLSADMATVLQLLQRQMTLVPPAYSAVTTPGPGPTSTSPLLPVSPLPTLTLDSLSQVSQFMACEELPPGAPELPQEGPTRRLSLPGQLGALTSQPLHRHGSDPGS
row,Structure (SMILES),"hERG current change (%, negative = inhibition) at 1uM [%]"
1,O=C(NCCN1CCN(c2ccccc2)CC1)c1ccc2c(c1)[nH]c(=S)n1c3ccccc3nc21,6.72
2,O=C(NCCc1cccc(Cl)c1)c1cccc([N+](=O)[O-])c1,2.77
3,N=c1c(C(=O)NC2CCCCC2)cc2c(=O)n3ccccc3nc2n1Cc1cccnc1,-50.6
4,COc1ccccc1CN1CC(C(=O)NC2CCOCC2)CCC1=O (centres unmarked),15
5,O=C(CN1CCCC1)Nc1ccccc1Sc1ccccc1,4.91
6,CCC(CC)C(=O)Nc1ccc(C(=O)c2ccccc2)cc1,22.6
7,Cl.OCC(CO)(CO)NCc1ccc(-c2ccccc2)cc1,9.58
8,CCOc1ccccc1N1CCN(c2nc3ccccc3nc2C(C#N)C(=O)OC)CC1 (centres unmarked),14.2
9,COc1ccccc1NC(=O)c1ccc2snnc2c1,2.46
10,Cc1c(NS(=O)(=O)c2cccc(C(=O)O)c2)c(=O)n(-c2ccccc2)n1C,14.3
11,COCCN1CCN(C(=O)C2CCC(=O)N(CCc3ccccc3)C2)CC1 (centres unmarked),9.1
12,COc1cccc(NC(=S)N(CCc2ccc(OC)c(OC)c2)Cc2ccccn2)c1,0.386
13,c1ccc(-c2noc(-c3cccc4ccccc34)n2)nc1,9.47
14,O=C(c1cn(CC(=O)N2CCCC2)c2ccccc12)C1CCCCC1,12.5
15,COc1ccc(-n2nc(C(=O)NCC(=O)Nc3cccc(NC(C)=O)c3)c3ccccc3c2=O)cc1,8.77
16,Nc1scc2c(C(=O)N/N=C/c3ccc(Cl)cc3)nn(-c3ccccc3)c(=O)c12,12.5
17,CCOC(=O)C1CCN(C(=S)Nc2ccc(CC)cc2)CC1,-3.06
18,O=C(c1cnn2c(C(F)(F)F)cc(-c3ccco3)nc12)N1CCc2ccccc2C1,8.21
19,O=C1NC(=O)C(=Cc2ccc(-c3ccc(Cl)cc3)o2)C(=O)N1,10.7
20,O=S(=O)(NC1CC1)c1ccc(S(=O)(=O)N2CCCC3(CCCCC3)C2)cc1,13.8
21,Cc1ccc(S(=O)(=O)N(C)C)cc1NC(=O)C(C)N(C)CCOc1ccc(Cl)cc1 (centres unmarked),-1.99
22,CC1=CC(c2ccccc2)n2nc(N3C(=O)C4CC=CCC4C3=O)nc2N1 (centres unmarked),4.78

row,Structure (SMILES),"hERG current change (%, negative = inhibition) at 1uM [%]"
1,O=C(COC(=O)CNC(=O)c1ccccc1F)NC12CC3CC(CC(C3)C1)C2,7.94
2,CCC(CC)C(=O)N=C1SC2CS(=O)(=O)CC2N1CCc1ccc(OC)cc1 (centres unmarked),-8.53
3,CCOP(=O)(OCC)/C(=N/OC(=O)c1ccc(OC)cc1)C(N)=O,23.8
4,O=C(N/N=C/C=C/c1ccccc1)c1ccc(Br)cc1,-0.71
5,O=C1CC(C(=O)Nc2ccccc2)C2(CCCC2)O1 (centres unmarked),14.2
6,COc1ccc(OC)c(C2CC(c3ccc(NS(C)(=O)=O)cc3)=NN2C(=O)c2ccccc2)c1 (centres unmarked),-47.8
7,CCCNC(=O)C1CCN(c2ccc(S(=O)(=O)N3CCOCC3)cc2Cl)CC1,12.5
8,O=C(CCN1C(=O)S/C(=C\c2ccc(Cl)cc2)C1=O)Nc1ccc(C(=O)O)cc1,13.9
9,O=C(Nc1nccs1)c1cc2c(s1)CCCCC2,12.1
10,Cc1ccc(Nc2nc(NCCO)nc3c2cnn3C)cc1Cl,14.5
11,CCN(c1cccc(C(F)(F)F)c1)S(=O)(=O)c1ccc2c(c1)CCN2C(C)=O,9.81
12,Cc1ccc(S(=O)(=O)c2nnn3c2nc(N2CCN(c4ccccn4)CC2)c2ccccc23)cc1C,16.3
13,O=C(OCc1ccc(F)cc1)c1cc(S(=O)(=O)N2CCCCC2)ccc1N1CCOCC1,4.59
14,COc1cccc(CN2CCNC(=O)C2CC(=O)NCC2CCOCC2)c1 (centres unmarked),10.6
15,O=c1[nH]c2ccccc2cc1-c1nnn(-c2ccc(Cl)c(Cl)c2)n1,2.29
16,COc1ccc(CCN(C)C(=O)N2CCOCC2)cc1OC,12
17,C=CCOC(=O)C1=C[C@H](C2CCCCC2)C[C@H](OCc2ccc(CO)cc2)O1,15
18,CCOC(=O)c1ccc(NC(=O)CN2C(=O)C(CC)SC(CC)C2=O)cc1 (centres unmarked),1.69
19,O=C1[C@H]2[C@@H](c3ccc(Cl)cc3)N3C(=O)N(c4cccc(F)c4)C(=O)[C@@]3(Cc3ccc(Cl)cc3)[C@H]2C(=O)N1C1CCCCC1,2.05
20,CCn1nnnc1SCC(=O)Nc1ccc2c(c1)OCO2,7.22
21,Cn1c(SCc2cccnc2)nnc1-c1c[nH]c2ccccc12,8.78
22,O=C(CN1CCCCC1)Nc1ccc(NC(=O)c2ccc(Cl)cc2)cc1Cl,8.32

row,Structure (SMILES),"hERG current change (%, negative = inhibition) at 1uM [%]"
1,CCCNc1nc(-c2ccccc2)c(C(=O)OCC)cc1C#N,1.17
2,COc1ccc(C(C(=O)NC(C)(C)C)N(C(=O)CCC(=O)Nc2cc(C)on2)c2cc(C)cc(C)c2)cc1 (centres unmarked),11.5
3,COc1ccc(-c2noc(CCC(=O)Nc3ccc(C)c(C)c3)n2)cc1,7.73
4,COc1ccc(C(=O)N2CCN(Cc3cc(OC)c(O)c(OC)c3)CC2)cc1OC.O=C(O)C(=O)O,21.1
5,Cc1nc2ccc(NC(=O)c3ccc(N4C(=O)CCC4=O)cc3)cc2s1,5.89
6,COc1ccc(OCc2nc(N)nc(Nc3ccccc3)n2)cc1,7.66
7,CCOC(=O)C(C)Sc1snnc1C (centres unmarked),11.8
8,O=C(O)c1ccccc1/C=N/N1CCN(C2c3ccccc3-c3ccccc32)CC1,8.28
9,COc1cccc(CNC(=O)Cc2ccc(NC3=NC4CS(=O)(=O)CC4S3)cc2)c1 (centres unmarked),6.79
10,COc1ccc(COn2nnc3ccc(S(=O)(=O)N4CCOCC4)cc32)cc1F,4.18
11,FC(F)(F)c1cccnc1-n1cncn1,5.22
12,CC(C)(C)NC(=O)COC(=O)/C=C/c1ccccc1[N+](=O)[O-],14.9
13,COc1ccc(OC)c(Nc2cc(C)c3ccccc3n2)c1,9.76
14,CCOC(=O)C1=C(O)/C(=C/c2ccc(OCC(=O)Nc3ccc(C)cc3)cc2)N=C1C,10.6
15,O=C(CN1CCC(C(=O)c2ccc3c(c2)OCCO3)CC1)NCc1ccc(F)cc1,3.51
16,Cc1nn(CC(=O)NCc2cccnc2)c(C)c1[N+](=O)[O-],8.64
17,Cc1noc(C)c1S(=O)(=O)Nc1ccc(C(=O)NCc2ccccc2)cc1,10.5
18,COc1ccc(Cc2c(O)nc(SCC(=O)N3CCOCC3)[nH]c2=O)cc1,12
19,CC(=O)Oc1cccc(/C=C2\C=C(c3ccc(C)cc3)OC2=O)c1,12.2
20,CCc1nccn1CCC(=O)N1CCCC(N2CCN(c3ccccc3C)CC2)C1 (centres unmarked),-17.4
21,O=C(N/N=C/c1ccc(-c2cccc(C(F)(F)F)c2)o1)c1ccccc1O,8.36
22,CCOC(=O)N1CCN(C(=O)c2cc3cc(OC)c(OC)cc3[nH]2)CC1,7.4

row,Structure (SMILES),"hERG current change (%, negative = inhibition) at 1uM [%]"
1,O=C(COc1ccccc1)Nc1ccc2c(c1)C(=O)N(CC1CCCO1)C2=O (centres unmarked),11.9
2,CC1(C)CC(=O)C/C(=N\NC(=O)CCc2ccc(S(=O)(=O)N3CCOCC3)cc2)C1,12.6
3,COc1ccc2c(Cl)c(C(=O)N/N=C/c3cccnc3)sc2c1,14
4,COC(=O)c1cccc(NC(=O)CSc2nnnn2C)c1,18.9
5,COc1ccc2nc(NC(=O)CN3C(=O)NC4(CCCCC4)C3=O)sc2c1,11.4
6,Nc1n[nH]c(-c2ccc([N+](=O)[O-])cc2[N+](=O)[O-])n1,5.09
7,CCOc1ccc(S(=O)(=O)Nc2ncn[nH]2)cc1,10.6
8,O=S1(=O)CCO[C@H]2Cc3ccccc3[C@H]2N1Cc1ccccc1F,2.14
9,CCc1ccc2[nH]c(C(=O)Nc3ccc4c(c3)OCO4)cc2c1,15.8
10,CCc1ccc(C2C(C(=O)O)c3ccccc3C(=O)N2C)cc1 (centres unmarked),0.852
11,CC1(O)N(Cc2ccccc2)C(=O)OC12CCCCC2 (centres unmarked),6.86
12,O=C(NC1(Cc2ccc(O)cc2)CCCCC1)c1ccccc1,8.73
13,CC[C@@H]1Cc2cc(O)ccc2C2=C1c1ccc(O)cc1C[C@H]2CC,-4.28
14,CN1C(=O)N(CN2CCCCC2)C2C1N(C)C(=O)N2CN1CCCCC1 (centres unmarked),-1.43
15,O=C1C=C(c2ccnc3cc(Cl)ccc23)C[C@@H](c2ccc3c(c2)OCO3)C1,9.28
16,CCOP(=O)(C#CC(C)(C)C)C(C)(O)c1ccccc1 (centres unmarked),15.1
17,C=CCn1c(-c2cccs2)nc2nc3ccccc3nc21,12.5
18,CC(SCc1ccccc1)C(=O)Nc1ccccc1Br (centres unmarked),8.31
19,O=C(NC(=S)NNC(=O)c1cnccn1)c1ccc(F)cc1,8.25
20,C=C1CCN([C@@H](Cc2ccccc2)C(=O)NCc2ccc(Cl)c(Cl)c2)S(=O)(=O)c2ccccc21,15.2
